# PubChem BioAssay AID741 (SRMLSC, 2007)
# Inconclusive results, whose numbers are uncertain, are shown with a selection of clear calls. Activity calls are given as the source filed them. Cut-off read from the data, not from the text of the source: active = toxicity enhancement factor above about 0.054; inconclusive = between about 0.00067 and that limit; inactive = weaker than that.
# Assay: MRP-overexpressing cell chemosensitization – dose response (AID 741)
# Settings: MRP-overexpressing cells, viability with/without cytotoxic drug; hits give high values
row,Structure (SMILES),toxicity enhancement factor
1,Cn1c(=O)c(NCCO)c2c3c(cccc31)C(=O)c1ccccc1-2,inconclusive: 0.005
2,CCOC(=O)c1cc2c(=O)n3ccccc3nc2n(CCOC)c1=NC(=O)c1ccncc1,inconclusive: 0.0493
3,c1ccc(N2CCN(c3ccccc3)C2c2cccnc2)cc1,inconclusive: 0.0058
4,Cc1ccc2c(Cl)c(C(=O)NCCCn3ccnc3)sc2c1,inconclusive: 0.0114
5,Cn1c(=O)c2c(nc(NC3CCCCC3)n2CC(O)COc2ccccc2)n(C)c1=O (stereo unspecified),inactive: -0.0085
6,O=C(O)c1ccc(-n2nnnc2SCc2ccccc2)cc1,inactive: -0.0082
7,CCn1c(N)c(C(=O)N2CCOCC2)sc1=S,inactive: -0.0052
8,COc1ccc2c(c1)c(CC(=O)O)c(C)n2C(=O)c1ccc(Cl)cc1,inconclusive: 0.0108
9,Cc1ccc(C2C3CN(C(C)C)CC=C3C(C#N)=C(N)C2(C#N)C#N)cc1 (stereo unspecified),inconclusive: 0.0337
10,O=C(NC1CC1)C1CCN(c2ccc(S(=O)(=O)N3CCOCC3)cc2)CC1,inconclusive: 0.0047
11,CCc1nnc(NC(=O)CSc2nnc(C3CCCCC3)n2-c2cccc(Cl)c2)s1,inconclusive: 0.0235
12,Cn1c(=O)c2c(nc(N3CCN(Cc4ccccc4)CC3)n2CCCc2ccccc2)n(C)c1=O,inconclusive: 0.0183
13,CSc1nnc(-c2cc3ccccc3cc2O)n1C,inactive: -0.0016
14,CC(C(=O)O)c1ccc(-c2ccccc2)c(F)c1 (stereo unspecified),inactive: -0.0042
15,Cc1oncc1C(=O)Nc1ccc(C(F)(F)F)cc1,inactive: -0.0035
16,CC(=O)Oc1cccc2c1C(=O)c1c(OC(C)=O)cc(C(=O)O)cc1C2=O,inactive: -0.0114
17,c1ccc(-c2nc(N3CCOCC3)c3ccccc3n2)nc1,inactive: -0.0278
18,Cc1ccc(Cl)cc1N1CCN(C(=O)CCC(=O)O)CC1,inconclusive: 0.0021

row,Structure (SMILES),toxicity enhancement factor
1,CCc1cccc2c3c([nH]c12)C(CC)(CC(=O)O)OCC3 (stereo unspecified),inactive: -0.0019
2,O=C(NCCCn1ccnc1)c1sc2cccc(F)c2c1Cl,inactive: -0.001
3,NC(=O)c1ncn([C@@H]2O[C@H](CO)[C@@H](O)[C@H]2O)c1O,inconclusive: 0.0057
4,COc1ccc(C)cc1-n1c(N)c(C#N)c(C#N)c1-c1ccc(OC)c(OC)c1OC,active: 0.077
5,CCCCSc1nnc2n(CCc3ccccc3)c(=O)c3c4c(sc3n12)COC(C)(C)C4,active: 0.189
6,Cc1ccc(S(=O)(=O)Oc2ccc(C)cc2/C=N/N=C2\NC(=O)C(C)S2)cc1 (stereo unspecified),inconclusive: 0.0064
7,COCCCNC(=O)CCn1c(=O)c2ccccc2n(CC(=O)Nc2ccc(C)cc2C)c1=O,inconclusive: 0.0106
8,CCc1nnc(NC(=O)CSc2nnc(-c3cc4ccccc4cc3O)n2CC)s1,inconclusive: 0.0013
9,C=CCNc1nc2c(c(=O)n(C)c(=O)n2C)n1Cc1ccc(F)cc1,inconclusive: 0.0049
10,CN1CCN(c2nc(-c3cccnc3)nc3ccccc23)CC1,inconclusive: 0.0177
11,CN1C(C(=O)Nc2ccccn2)=C(O)c2ccccc2S1(=O)=O,inactive: -0.0045
12,COc1ccc(CN(C(=O)c2ccccc2OC)C2CCS(=O)(=O)C2)cc1 (stereo unspecified),inconclusive: 0.0079
13,C=CCSc1nnc2nc3c(nn12)c1cc(C)ccc1n3CC=C,inconclusive: 0.031
14,CCOC(=O)N1CCC(n2c(SCC(=O)NCc3ccco3)nc3ccsc3c2=O)CC1,inconclusive: 0.0268
15,O=C1Nc2cc(C(=O)N3CCN(Cc4ccccc4)CC3)ccc2SC1N1CCOCC1 (stereo unspecified),inactive: -0.0007
16,CCCC(=O)n1nc(-c2ccc(OC)cc2)nc1N,inconclusive: 0.0051
17,Fc1ccc(C2C3=C(Nc4ncnn42)c2ccccc2OC3c2ccncc2)cc1 (stereo unspecified),inconclusive: 0.0166
18,COc1ccc(/C=C/C(=O)Nc2ccccc2C(=O)O)cc1OC,inactive: -0.0098
